Self-cleavage data for 167 variants are collected here from the RNAGym collection of RNA variant scans (doi:10.7554/elife.90254).

To fix the notation:
B1: LINE1-mini (parent)
chain: GGCAGAGCUCAACACAGCGUGGCAAAGUGGCUGUGGCUAGACUGCC

The source gives no read counts; variants with many changes may rest on few reads.

The series covers variants of B1. As to the kind of experiment: self-cleavage, relative activity (ratio to wild type); higher = more cleavage; in vitro, sequencing; the parent is a self-cleaving ribozyme.
As for A24G U32A U34G C45G, the self-cleavage was 0. For A25U G29A G30C A41U the value was 1.07; for A25U A26G G27U, 0.6. As for A24U A39C C42U C45U, the self-cleavage stood at 0.04. For A25C G44U C46A the value was 0.02.

A25U C37A G40U C46A: the self-cleavage is 0.45. Turning to A25C U28C U38A, the self-cleavage is 0.1. The result for A24U U34C A41G G44A C45G reads 0. As for A25G A26C U34G, the self-cleavage turned out to be 0.03. The result for A26C U28C C42A reads 0.26. For A26G G27A C31A C37U, the self-cleavage turned out to be 0.03. Take A25U G40C U43G: the self-cleavage was 0.02. For A25U A26G G29A G35A the value was 0.01; for A24U C31A G33C, 0.04. With A25U G27U C45G, the self-cleavage amounted to 0.1. As for A25C A39G C42A, the self-cleavage came to 0.19. For A25U G29U C31A the value was 0.05; for A26G G29A C45U C46U, 1.25. For A24U C31G A39C C45A, the self-cleavage is 0.03.

As to A25G G40U C45U, the self-cleavage was 0.09.

For A24U A41U C46G, the self-cleavage amounted to 0.06. A24G G36C C37A: the self-cleavage stood at 0.08.

For the variant A25U U28A A41C G44C, the self-cleavage came to 0.07. Consider A24U A39G C46G, for which the self-cleavage amounted to 0.03. For A24U G30C G40U the value was 0.22; for A25U U28C C37A, 0.03. For A26C U32A G35C the value was 0.13; for A25C C37G G44A, 0; for A25G U32C A39C, 0.03.

With A26C G27A G33A U34C U43A C46G, the self-cleavage was 0.02. With A25U G44U C46G, the self-cleavage was determined as 0.14. For the variant A24G G29U U38A G40A U43C, the self-cleavage stood at 0.02.

Take A26C U28G G33U: the self-cleavage is 0.1. Regarding A24U C31A U43A, the self-cleavage was 0.06. Turning to A26C U32G U38G, the self-cleavage worked out at 0.02. For A24U G27C U34C, the self-cleavage was found to be 0.06. Consider A24G U32G A41C C46G, for which the self-cleavage is 0.01. For A26G G30C C42G the value was 0.03; for A26G G27A G33C, 0.01; for A25C C31U C45U, 0.32.

With A25G G27U C46A, the self-cleavage was determined as 0.26. As to A25G U32A C42A, the self-cleavage was found to be 0.08. The result for A26G C37U G40U reads 0.19; that for A24U C37U C45G, 0.05; that for A25C G33A C37G, 0.07. A24U G40A C45U: the self-cleavage came to 0.07. For A24G G30A U32A G33U the value was 0.03; for A26G G27U G30U A41C G44C, 0.17. Regarding A24G U28C A41U U43A, the self-cleavage was 0.08.

For the variant A24U A39U G40U, the self-cleavage was 0.12.

In the case of A25C G30U G33C C45A, the self-cleavage came to 0.03. On to A25C G33A G44A, for which the self-cleavage was 0.08. For A26C U34A G36A C46A the value was 0.03. A25C G33U C45G: the self-cleavage amounted to 0.39. For the variant A25U G27U G35C, the self-cleavage turned out to be 0.12.

Regarding A26G G30U A41U, the self-cleavage was 0.72.

A26G G30U A41C: the self-cleavage worked out at 0.02.

Take A24G G27A A39G G44C: the self-cleavage came to 0.05.

With A25C A26C G27U C46A, the self-cleavage came to 0.87.

For A25G G36C C45G, the self-cleavage worked out at 0.04. In the case of A24U G29A C46U, the self-cleavage was 0.62. As for A25U G30U G35U G36A, the self-cleavage was 0.11. As for A25U A39C C42A G44A, the self-cleavage turned out to be 0.02. A25C C31A U43G: the self-cleavage was 0.

On to A24U G29A G33U C45U, for which the self-cleavage is 0.05. The result for A25C A39G G44C reads 0.01.

With A26C U32A G33A G35C U38G, the self-cleavage worked out at 0.05. As for A24U A25C U28C G44A, the self-cleavage was 0. For A25U U28G G30U C31G, the self-cleavage was 0.1.

On to A24U U32A A41U C45U, for which the self-cleavage was found to be 0.05. For A24U A25G G40U C45U, the self-cleavage turned out to be 0.17.

On to A25C G35A C42G, for which the self-cleavage worked out at 0.02. The result for A25U U28C A39U reads 1.44; that for A25C G27U A39U, 0.27; that for A24U G30A G44U C45G C46U, 0.12. Regarding A25C C31G G44U C45G, the self-cleavage is 0.03.

In the case of A25C C31U U32C, the self-cleavage came to 0.06.

For the variant A26C G40C A41C, the self-cleavage was 0.09. On to A25G G33U C42A, for which the self-cleavage came out at 0.04.

For A26G G27C G33U A41U C42A, the self-cleavage is 0.13.

As to A24U G30A U34G A39C A41G, the self-cleavage was found to be 0.

As to A24U A25U C45A, the self-cleavage was 0.85.

Turning to A26G C42U G44A, the self-cleavage turned out to be 0.08. Take A25U C37G A41G: the self-cleavage is 0.01. As to A24U U34A C37U, the self-cleavage stood at 0.04.

Regarding A25G G30C C42U, the self-cleavage was found to be 0.02. As to A24G G27A A39U, the self-cleavage was determined as 0.45.

For the variant A25G G30A U32A G44C, the self-cleavage amounted to 0.05. With A25G A26C G33A, the self-cleavage worked out at 0.04. As to A25G U38A G40A, the self-cleavage was 0.03.

As to A25G U32C U34A, the self-cleavage was determined as 0.05. On to A25C G30U U32G, for which the self-cleavage was 0.03. The result for A25U U34G G35A reads 0.01. On to A24G G33U A39C G40A, for which the self-cleavage came out at 0.04. A25U G30U C31A G35U C42A: the self-cleavage came to 0.03.

Consider A24U G27C C42U, for which the self-cleavage came to 0.44. With A25G U32A C37A A39U, the self-cleavage was 0.25.

As to A24U C31G C45A, the self-cleavage amounted to 0.07. The result for A25U U43C C46A reads 0.05. In the case of A26G G29U U32C C37U, the self-cleavage was determined as 0.02.

In the case of A25G G33A G35U, the self-cleavage was 0.27.

For A25C G35C C42U, the self-cleavage turned out to be 0. For A24U A26U G40C C46U the value was 0.18; for A25G C31G C46U, 0.05; for A24U G35C U38A, 0.02. Turning to A26G A39G G40A, the self-cleavage is 0.02. Turning to A24G U28C C45U, the self-cleavage was determined as 2.3.

In the case of A25U G29U C37U, the self-cleavage turned out to be 0.3. Consider A24G C37U G40C, for which the self-cleavage came out at 0.27. The result for A25U C42G C46A reads 0; that for A26G G29A G40U, 0.04; that for A25U U32A G40U, 0.05. Take A25C U34C C46A: the self-cleavage worked out at 0.09.

Turning to A25U A26U C31U, the self-cleavage is 0.09. As to A25U G27C G35U, the self-cleavage was found to be 0.06. On to A25U G27C G35A, for which the self-cleavage worked out at 0.08.

Regarding A25G G27C A41C, the self-cleavage was 0. For A25C G27C C37G the value was 0.03; for A25C G33A C45A, 0.04. Consider A24U G29A C31G, for which the self-cleavage came to 0.07. As for A24U U38C G44A, the self-cleavage is 0.02. Take A24G G30A U32G C45A: the self-cleavage was found to be 0.28. The result for A26C G33C G44C reads 0.03; that for A25G U38A A41U, 0.03. The result for A25C C31A U32A G36A G40A reads 0.03; that for A25G G29C C37G G44C, 0.01; that for A25U G30U C31A C37G C46G, 0.01. A26C G35A A41G: the self-cleavage was found to be 0.07. A26C C37U C46G: the self-cleavage turned out to be 0.07. In the case of A24U G36U C37U, the self-cleavage amounted to 0.06. With A24U G35A C45U, the self-cleavage was 0.06. Turning to A24U C31G C42U, the self-cleavage amounted to 0.01.

Take A25C G27A G40U: the self-cleavage is 0.13. As to A25C G36C C46U, the self-cleavage was determined as 0.02. As for A24U C42G C46A, the self-cleavage was 0.03. For A25C G33A U34A the value was 0.04; for A25U C31A G36U, 0.02; for A25U G33A G36U, 0.02. On to A26G G30C G36U C37U, for which the self-cleavage was 0.01. In the case of A25U A26C U32G, the self-cleavage was found to be 0.17. In the case of A25U A26G C37U, the self-cleavage is 0.01.

Regarding A26C G29U G35U A41G, the self-cleavage amounted to 0.02.

Turning to A24U U38C A39U C42U, the self-cleavage stood at 0.08. With A24G U28A U34A, the self-cleavage amounted to 0.04. Consider A26G G30A G36C A39G, for which the self-cleavage stood at 0.05.

With A26C C37G G40C, the self-cleavage was 0.22. For A25C G27U G33U A39G G44A the value was 0.01; for A24U U28C A41C, 0.03.

For A24U C42U C46G, the self-cleavage turned out to be 0.04. The result for A24G U28C G36U U38A reads 0.04.

In the case of A25C U28C G33U G35C C45G, the self-cleavage amounted to 0.08. In the case of A24U U43C C46A, the self-cleavage came to 0.02. On to A25G U28C C45U, for which the self-cleavage was 0.14. The result for A25G G27U C31U reads 0.25; that for A25G G30C G33C, 0.01; that for A25U G29U G30C G36C, 0.02.

For A25C G27C G29A C31A, the self-cleavage is 0.06. For the variant A26C U32G G36U, the self-cleavage came out at 0.04. As for A25G C37A A39C C42A, the self-cleavage came out at 0.04. The result for A25U U28C C31U G40C reads 0.04; that for A25U U32C U34C, 0.02. In the case of A25G G36C A39C, the self-cleavage is 0.

On to A25U U32G G35A G36U, for which the self-cleavage is 0.15. For the variant A26C G30C G33A U38A G44U, the self-cleavage was determined as 0.1. With A26G G29U C31A, the self-cleavage was 0.3. As to A26C C31U A41C, the self-cleavage was determined as 0.06. A26C U38C U43A: the self-cleavage was 0.2.
